The source of these data is the supplement of paper PMC12230231.

± gives the standard deviation of the averaged measurements. Restriction of a single-cycle SIVsab GFP reporter by TRIM5α v1-loop variants in CRFK cells. Human variants: read share among cells still uninfected after two challenges over input, higher = gained restriction. Rhesus variants: share among infected cells over input, higher = lost restriction. Reporter dose not given per row. No active / inactive call per row; the paper calls a change when both replicates lie above its controls (mean + 2 SD of stop or wild-type variants, or the top frameshift score). Residues outside the varied loop are taken from Swiss-Prot. The paper reads the human single-substitution scores as noise; they and the rhesus combinations repeat poorly (rank correlation 0.3 to 0.4), indel scores repeat only for the top variants, rhesus substitutions well (0.9).

The test system of the series is SIVsab (simian immunodeficiency virus of sabaeus monkeys), single-cycle GFP reporter, in CRFK cells. Briefly: enrichment among infected cells over input (fold); higher = weaker restriction. The following applies: library: human / rhesus combinations. How it is done: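 Pools of CRFK cells expressing variants of the TRIM5α v1 loop were challenged with the single-cycle reporter, sorted by GFP and sequenced; mean of two replicates.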
In the case of “MASGILLNVKEEVTCPICLELLTEPLSLHCGHSFCQACITANHKKSMLYKEGERSCPVCRISYQPENIQPNRHVANIVEKLREVKLSPEEGQKVDHCARHGEKLLLFCQEDSKVICWLCERSQEHRGHHTFLMEEVAQEYHVKLQTALEMLRQKQQEAEKLEADIREEKASWKIQIDYDKTNVSADFEQLREILDWEESNELQNLEKEEEDILKSLTKSETEMVQQTQYMRELISELEHRLQGSMMDLLQGVDGIIKRIENMTLKKPKTFHKNQRRVFRAPDLKGMLDMFRELTDARRYWVDVTLAPNNISHAVIAEDKRQVSSRNPQIMYQARGTLYTFQSLVNFNYCTGVLGSQSITSGKHYWEVDVSKKSAWILGVCAGFQSDAMYNIEQNENYQPKYGYWVIGLQEGVKYSVFQDGSSHTPFAPFIVPLSVIICPDRVGVFVDYEACTVSFFNITNHGFLIYKFSQCSFSKPVFPYLNPRKCTVPMTLCSPSS [rhesus TRIM5α, 332-344 = QARGTLYTFQSLV]”, the enrichment was 2.25 ± 0.052.

In the case of “MASGILLNVKEEVTCPICLELLTEPLSLHCGHSFCQACITANHKKSMLYKEGERSCPVCRISYQPENIQPNRHVANIVEKLREVKLSPEEGQKVDHCARHGEKLLLFCQEDSKVICWLCERSQEHRGHHTFLMEEVAQEYHVKLQTALEMLRQKQQEAEKLEADIREEKASWKIQIDYDKTNVSADFEQLREILDWEESNELQNLEKEEEDILKSLTKSETEMVQQTQYMRELISELEHRLQGSMMDLLQGVDGIIKRIENMTLKKPKTFHKNQRRVFRAPDLKGMLDMFRELTDARRYWVDVTLAPNNISHAVIAEDKRQVSSRNPQIMYQARGTLYTFQTFTNFNYCTGVLGSQSITSGKHYWEVDVSKKSAWILGVCAGFQSDAMYNIEQNENYQPKYGYWVIGLQEGVKYSVFQDGSSHTPFAPFIVPLSVIICPDRVGVFVDYEACTVSFFNITNHGFLIYKFSQCSFSKPVFPYLNPRKCTVPMTLCSPSS [rhesus TRIM5α, 332-344 = QARGTLYTFQTFT]”, the enrichment is 1.58 ± 0.81.

For “MASGILLNVKEEVTCPICLELLTEPLSLHCGHSFCQACITANHKKSMLYKEGERSCPVCRISYQPENIQPNRHVANIVEKLREVKLSPEEGQKVDHCARHGEKLLLFCQEDSKVICWLCERSQEHRGHHTFLMEEVAQEYHVKLQTALEMLRQKQQEAEKLEADIREEKASWKIQIDYDKTNVSADFEQLREILDWEESNELQNLEKEEEDILKSLTKSETEMVQQTQYMRELISELEHRLQGSMMDLLQGVDGIIKRIENMTLKKPKTFHKNQRRVFRAPDLKGMLDMFRELTDARRYWVDVTLAPNNISHAVIAEDKRQVSSRNPQIMYQARGTLYTFQTFVNFNYCTGVLGSQSITSGKHYWEVDVSKKSAWILGVCAGFQSDAMYNIEQNENYQPKYGYWVIGLQEGVKYSVFQDGSSHTPFAPFIVPLSVIICPDRVGVFVDYEACTVSFFNITNHGFLIYKFSQCSFSKPVFPYLNPRKCTVPMTLCSPSS [rhesus TRIM5α, 332-344 = QARGTLYTFQTFV]”, the enrichment stood at 0.991 ± 0.54.

As for “MASGILLNVKEEVTCPICLELLTEPLSLHCGHSFCQACITANHKKSMLYKEGERSCPVCRISYQPENIQPNRHVANIVEKLREVKLSPEEGQKVDHCARHGEKLLLFCQEDSKVICWLCERSQEHRGHHTFLMEEVAQEYHVKLQTALEMLRQKQQEAEKLEADIREEKASWKIQIDYDKTNVSADFEQLREILDWEESNELQNLEKEEEDILKSLTKSETEMVQQTQYMRELISELEHRLQGSMMDLLQGVDGIIKRIENMTLKKPKTFHKNQRRVFRAPDLKGMLDMFRELTDARRYWVDVTLAPNNISHAVIAEDKRQVSSRNPQIMYQARGTLYTFQTLTNFNYCTGVLGSQSITSGKHYWEVDVSKKSAWILGVCAGFQSDAMYNIEQNENYQPKYGYWVIGLQEGVKYSVFQDGSSHTPFAPFIVPLSVIICPDRVGVFVDYEACTVSFFNITNHGFLIYKFSQCSFSKPVFPYLNPRKCTVPMTLCSPSS [rhesus TRIM5α, 332-344 = QARGTLYTFQTLT]”, the enrichment worked out at 1.55 ± 0.64.

For “MASGILLNVKEEVTCPICLELLTEPLSLHCGHSFCQACITANHKKSMLYKEGERSCPVCRISYQPENIQPNRHVANIVEKLREVKLSPEEGQKVDHCARHGEKLLLFCQEDSKVICWLCERSQEHRGHHTFLMEEVAQEYHVKLQTALEMLRQKQQEAEKLEADIREEKASWKIQIDYDKTNVSADFEQLREILDWEESNELQNLEKEEEDILKSLTKSETEMVQQTQYMRELISELEHRLQGSMMDLLQGVDGIIKRIENMTLKKPKTFHKNQRRVFRAPDLKGMLDMFRELTDARRYWVDVTLAPNNISHAVIAEDKRQVSSRNPQIMYQARGTLYTFQTLVNFNYCTGVLGSQSITSGKHYWEVDVSKKSAWILGVCAGFQSDAMYNIEQNENYQPKYGYWVIGLQEGVKYSVFQDGSSHTPFAPFIVPLSVIICPDRVGVFVDYEACTVSFFNITNHGFLIYKFSQCSFSKPVFPYLNPRKCTVPMTLCSPSS [rhesus TRIM5α, 332-344 = QARGTLYTFQTLV]”, the enrichment is 0.849 ± 0.058.

In the case of “MASGILLNVKEEVTCPICLELLTEPLSLHCGHSFCQACITANHKKSMLYKEGERSCPVCRISYQPENIQPNRHVANIVEKLREVKLSPEEGQKVDHCARHGEKLLLFCQEDSKVICWLCERSQEHRGHHTFLMEEVAQEYHVKLQTALEMLRQKQQEAEKLEADIREEKASWKIQIDYDKTNVSADFEQLREILDWEESNELQNLEKEEEDILKSLTKSETEMVQQTQYMRELISELEHRLQGSMMDLLQGVDGIIKRIENMTLKKPKTFHKNQRRVFRAPDLKGMLDMFRELTDARRYWVDVTLAPNNISHAVIAEDKRQVSSRNPQIMYQARGTRFQSFTNFNYCTGVLGSQSITSGKHYWEVDVSKKSAWILGVCAGFQSDAMYNIEQNENYQPKYGYWVIGLQEGVKYSVFQDGSSHTPFAPFIVPLSVIICPDRVGVFVDYEACTVSFFNITNHGFLIYKFSQCSFSKPVFPYLNPRKCTVPMTLCSPSS [rhesus TRIM5α, 332-344 = QARGTRFQSFT]”, the enrichment was 2.08 ± 2.2.

For the sequence “MASGILLNVKEEVTCPICLELLTEPLSLHCGHSFCQACITANHKKSMLYKEGERSCPVCRISYQPENIQPNRHVANIVEKLREVKLSPEEGQKVDHCARHGEKLLLFCQEDSKVICWLCERSQEHRGHHTFLMEEVAQEYHVKLQTALEMLRQKQQEAEKLEADIREEKASWKIQIDYDKTNVSADFEQLREILDWEESNELQNLEKEEEDILKSLTKSETEMVQQTQYMRELISELEHRLQGSMMDLLQGVDGIIKRIENMTLKKPKTFHKNQRRVFRAPDLKGMLDMFRELTDARRYWVDVTLAPNNISHAVIAEDKRQVSSRNPQIMYQARGTRFQSLTNFNYCTGVLGSQSITSGKHYWEVDVSKKSAWILGVCAGFQSDAMYNIEQNENYQPKYGYWVIGLQEGVKYSVFQDGSSHTPFAPFIVPLSVIICPDRVGVFVDYEACTVSFFNITNHGFLIYKFSQCSFSKPVFPYLNPRKCTVPMTLCSPSS [rhesus TRIM5α, 332-344 = QARGTRFQSLT]”, the enrichment worked out at 2.51 ± 2.8.

For “MASGILLNVKEEVTCPICLELLTEPLSLHCGHSFCQACITANHKKSMLYKEGERSCPVCRISYQPENIQPNRHVANIVEKLREVKLSPEEGQKVDHCARHGEKLLLFCQEDSKVICWLCERSQEHRGHHTFLMEEVAQEYHVKLQTALEMLRQKQQEAEKLEADIREEKASWKIQIDYDKTNVSADFEQLREILDWEESNELQNLEKEEEDILKSLTKSETEMVQQTQYMRELISELEHRLQGSMMDLLQGVDGIIKRIENMTLKKPKTFHKNQRRVFRAPDLKGMLDMFRELTDARRYWVDVTLAPNNISHAVIAEDKRQVSSRNPQIMYQARGTRFTFPSFTNFNYCTGVLGSQSITSGKHYWEVDVSKKSAWILGVCAGFQSDAMYNIEQNENYQPKYGYWVIGLQEGVKYSVFQDGSSHTPFAPFIVPLSVIICPDRVGVFVDYEACTVSFFNITNHGFLIYKFSQCSFSKPVFPYLNPRKCTVPMTLCSPSS [rhesus TRIM5α, 332-344 = QARGTRFTFPSFT]”, the enrichment amounted to 1.27 ± 0.65.

For the sequence “MASGILLNVKEEVTCPICLELLTEPLSLHCGHSFCQACITANHKKSMLYKEGERSCPVCRISYQPENIQPNRHVANIVEKLREVKLSPEEGQKVDHCARHGEKLLLFCQEDSKVICWLCERSQEHRGHHTFLMEEVAQEYHVKLQTALEMLRQKQQEAEKLEADIREEKASWKIQIDYDKTNVSADFEQLREILDWEESNELQNLEKEEEDILKSLTKSETEMVQQTQYMRELISELEHRLQGSMMDLLQGVDGIIKRIENMTLKKPKTFHKNQRRVFRAPDLKGMLDMFRELTDARRYWVDVTLAPNNISHAVIAEDKRQVSSRNPQIMYQARGTRFTFPSFVNFNYCTGVLGSQSITSGKHYWEVDVSKKSAWILGVCAGFQSDAMYNIEQNENYQPKYGYWVIGLQEGVKYSVFQDGSSHTPFAPFIVPLSVIICPDRVGVFVDYEACTVSFFNITNHGFLIYKFSQCSFSKPVFPYLNPRKCTVPMTLCSPSS [rhesus TRIM5α, 332-344 = QARGTRFTFPSFV]”, the enrichment was found to be 0.728 ± 0.19.

In the case of “MASGILLNVKEEVTCPICLELLTEPLSLHCGHSFCQACITANHKKSMLYKEGERSCPVCRISYQPENIQPNRHVANIVEKLREVKLSPEEGQKVDHCARHGEKLLLFCQEDSKVICWLCERSQEHRGHHTFLMEEVAQEYHVKLQTALEMLRQKQQEAEKLEADIREEKASWKIQIDYDKTNVSADFEQLREILDWEESNELQNLEKEEEDILKSLTKSETEMVQQTQYMRELISELEHRLQGSMMDLLQGVDGIIKRIENMTLKKPKTFHKNQRRVFRAPDLKGMLDMFRELTDARRYWVDVTLAPNNISHAVIAEDKRQVSSRNPQIMYQARGTRFTFPSLVNFNYCTGVLGSQSITSGKHYWEVDVSKKSAWILGVCAGFQSDAMYNIEQNENYQPKYGYWVIGLQEGVKYSVFQDGSSHTPFAPFIVPLSVIICPDRVGVFVDYEACTVSFFNITNHGFLIYKFSQCSFSKPVFPYLNPRKCTVPMTLCSPSS [rhesus TRIM5α, 332-344 = QARGTRFTFPSLV]”, the enrichment came to 0.779 ± 0.32.

“MASGILLNVKEEVTCPICLELLTEPLSLHCGHSFCQACITANHKKSMLYKEGERSCPVCRISYQPENIQPNRHVANIVEKLREVKLSPEEGQKVDHCARHGEKLLLFCQEDSKVICWLCERSQEHRGHHTFLMEEVAQEYHVKLQTALEMLRQKQQEAEKLEADIREEKASWKIQIDYDKTNVSADFEQLREILDWEESNELQNLEKEEEDILKSLTKSETEMVQQTQYMRELISELEHRLQGSMMDLLQGVDGIIKRIENMTLKKPKTFHKNQRRVFRAPDLKGMLDMFRELTDARRYWVDVTLAPNNISHAVIAEDKRQVSSRNPQIMYQARGTRFTFPTFTNFNYCTGVLGSQSITSGKHYWEVDVSKKSAWILGVCAGFQSDAMYNIEQNENYQPKYGYWVIGLQEGVKYSVFQDGSSHTPFAPFIVPLSVIICPDRVGVFVDYEACTVSFFNITNHGFLIYKFSQCSFSKPVFPYLNPRKCTVPMTLCSPSS [rhesus TRIM5α, 332-344 = QARGTRFTFPTFT]”: the enrichment was determined as 1.05 ± 0.73.

As to “MASGILLNVKEEVTCPICLELLTEPLSLHCGHSFCQACITANHKKSMLYKEGERSCPVCRISYQPENIQPNRHVANIVEKLREVKLSPEEGQKVDHCARHGEKLLLFCQEDSKVICWLCERSQEHRGHHTFLMEEVAQEYHVKLQTALEMLRQKQQEAEKLEADIREEKASWKIQIDYDKTNVSADFEQLREILDWEESNELQNLEKEEEDILKSLTKSETEMVQQTQYMRELISELEHRLQGSMMDLLQGVDGIIKRIENMTLKKPKTFHKNQRRVFRAPDLKGMLDMFRELTDARRYWVDVTLAPNNISHAVIAEDKRQVSSRNPQIMYQARGTRFTFPTFVNFNYCTGVLGSQSITSGKHYWEVDVSKKSAWILGVCAGFQSDAMYNIEQNENYQPKYGYWVIGLQEGVKYSVFQDGSSHTPFAPFIVPLSVIICPDRVGVFVDYEACTVSFFNITNHGFLIYKFSQCSFSKPVFPYLNPRKCTVPMTLCSPSS [rhesus TRIM5α, 332-344 = QARGTRFTFPTFV]”, the enrichment was 0.463 ± 0.54.
